A compilation of properties of binary mixtures (doi:10.1007/s10953-012-9875-7)
The densities may have been worked out from excess volumes.

Test: xn = mol fraction of the nth substance listed
Conditions: 101 kPa

CCCC[n+]1ccc(C)cc1.N#C[S-] + O
mass density [kg/m3]
Conditions | 298.15 K | 308.15 K | 318.15 K | 328.15 K | 338.15 K | 348.15 K
x1 = 0.0076 | 1001.3 | 996.4 | – | 985.8 | 980.6 | 975.2
x2 = 0 | 1061.3 | 1055.6 | – | 1044.3 | – | 1033.1
x2 = 0.0564 | – | 1055.3 | 1049.6 | 1043.9 | 1038.3 | 1032.7
x2 = 0.1655 | 1060.4 | 1054.6 | 1048.8 | 1043.1 | – | –
x2 = 0.278 | 1059.5 | 1053.6 | 1047.8 | 1042 | 1036.2 | 1030.4
x2 = 0.3797 | 1058.3 | 1052.4 | 1046.5 | 1040.6 | – | 1028.8
x2 = 0.4628 | 1057.1 | 1051.1 | 1045.1 | 1039.1 | – | 1027.1
x2 = 0.5669 | 1054.9 | 1048.8 | 1042.6 | 1036.4 | – | –
x2 = 0.6364 | 1052.8 | – | 1040.3 | 1034 | 1027.7 | 1021.4
x2 = 0.6999 | 1050.2 | 1043.8 | 1037.4 | 1031 | 1024.4 | 1018.1
x2 = 0.7623 | 1046.7 | 1040.2 | 1033.7 | 1027.1 | – | 1013.8
x2 = 0.8333 | 1040.7 | 1034.1 | 1027.5 | 1020.8 | 1014 | 1007.1
x2 = 0.9028 | 1030.7 | 1024.4 | 1018 | – | 1004.6 | 997.6
x2 = 0.957 | 1016.5 | 1011.2 | 1005.5 | – | 992.1 | –
x2 = 0.9714 | – | – | – | – | – | 981.7

CCCC[n+]1ccn(C)c1.N#C[S-] + O
mass density [kg/m3]
Conditions | 298.15 K | 308.15 K | 318.15 K | 328.15 K | 338.15 K | 348.15 K
x2 = 0 | 1069.8 | 1063.9 | 1058 | – | 1046.4 | 1040.7
x2 = 0.0998 | 1069.1 | 1063.2 | 1057.3 | – | 1045.6 | 1039.8
x2 = 0.2007 | – | – | – | 1050.5 | 1044.6 | 1038.8
x2 = 0.3169 | – | 1061 | – | 1049 | – | 1037.2
x2 = 0.4346 | 1065.3 | 1059.2 | 1053.1 | 1047 | 1040.9 | 1034.9
x2 = 0.5296 | 1063.3 | 1057.1 | 1050.8 | 1044.6 | – | –
x2 = 0.6426 | 1059.5 | 1053.2 | 1046.8 | – | 1034 | 1027.6
x2 = 0.7201 | 1055.6 | 1049.2 | – | – | 1029.6 | 1023
x2 = 0.7949 | 1049.9 | 1043.4 | 1036.8 | 1030.2 | – | 1016.7
x2 = 0.8733 | 1040 | 1033.6 | 1027.1 | 1020.5 | 1013.6 | 1006.7
x2 = 0.9444 | 1024.3 | 1017.8 | 1011.9 | 1005.7 | 999.1 | 992.6
